Variants at the floor of the assay are shown more often than the library holds them.
B1: tRNA (parent)
chain: CUCUCGGUAGCCAAGUUGGUUUAAGGCGCAAGACUUUAAUUUAUCACUACGAAAUCUUGAGAUCGGGCGUUCGACUCGCCCCCGGGAGAUUUUUUCCUCGAGCAA

Variants of: B1
Test: nonsense suppression (GFP-seq) (ratio to wild type); higher = more function; SUP4oc tRNA, yeast GFP reporter sort-seq
Summary of the method: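 Yeast carrying genome-integrated SUP4oc tRNA variants from a library with ~3% random mutations were grown in raffinose/galactose medium with 80 mg/L adenine. Each strain also carried a galactose-driven GFP ochre reporter and RFP. Cells were sorted into GFP/RFP bins, and each bin was Illumina-sequenced (phred ≥30). Nonsense suppression (GFPSEQ) is the bin median GFP/RFP, weighted by each variant's estimated cell share per bin, relative to wild-type SUP4oc; variants needed ≥100 reads and ≥30 cells.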
CGCUCGGUAGCCAAGUUGUUUUAAGGCGCAUGACUUUAAUUUAUCACUACGAAAUCUUGAGAUCGGGCGUUCGACUCGCCCCAAGGAGAUUUUUUCCUCGAGCAA [U2G G19U A31U C83A G84A] showed a nonsense suppression of at most 0.026. CGCUCGGUAGCCAAGUUGUUUUAAGGCGCAAGAGUUUAAUUUAUCACUACGAAAUCUUGAGAUCGGGCGUACGACUCGCCCUCGGGAGAUUUUUUCCUCGAGCAA [U2G G19U C34G U71A C82U] showed a nonsense suppression of at most 0.026. In the case of CGCUCGGUAGCCAAGUUGGUUUAAUGCGCAAGACUUUAAUUUAUCACUACGAAAUCGUGAGAUCGGGCGUUCCACUCGCCCCCGGGAGAUUUUUUCCUCGAGCAA [U2G G25U U57G G73C], the nonsense suppression is reported as at most 0.026. Variant CGCUCGGUAGCCAAGUUGGUUUAAGACGCAAGACUUUAAUUUAUCACUACGAAAUCUUGAGAUCGGGCGUUCGACUCGCCCCCGGGAGAUUUUUUCCUCGAGCAA [U2G G26A] has a nonsense suppression of at most 0.026. For CGCUCGGUAGCCAAGUUGGUUUAAGACGCAAGAUUUUAAUUUAUCACUACGAAAACUUGAGAUCGGGCGUUCGAAUCGCCCCCGGGAGAUUUUUUCCUCGAGCAA [U2G G26A C34U U55A C75A], the nonsense suppression was at most 0.026. With CGCUCGGUAGCCAAGUUGGUUUAAGACGCAAGACUUUAAUUUAUCACUACGAAAUCUUAAUAUCGGGCGUUCGACUCGCCCCCGGGAGAUUUUUUCCUCGAGCAA [U2G G26A G59A G61U] the nonsense suppression was at most 0.026. CGCUCGGUAGCCAAGUUGGUUUAAGUCGCAAGACUUUAAUUUAUCACUACGAAAUCUUGAGAUCGGGCUUUCGACUCGCCCCCGGGAGAUUUUUUCCUCGAGCAA [U2G G26U G69U] showed a nonsense suppression of at most 0.026. CGCUCGGUAGCCAAGUUGGUUUAAGGCACAAGACUUUAAUUUAUCACUACGAAAUCUUGAGCUCGGGCGUUCGACUCGCCCCCGGGAGAUUUUUUCCUCGAGCAA [U2G G28A A62C] showed a nonsense suppression of at most 0.026. For CGCUCGGUAGCCAAGUUGGUUUAAGGCUCAAGACCUUAAUUUAUCACUACGAAAUCUUGAGAUCGGGCGUUCGACUCGCCCCCGGGAGAUUUUUUCCUCGAGCAA [U2G G28U U35C], the nonsense suppression was at most 0.026. With CGCUCGGUAGCCAAGUUGGUUUAAGGCGCAAAACUUUAAUUUAUCACUACGAAAUCUUGAGAUCGGGCGUUCGACUCGCCCCCGGUAGAUUUUUUCCUCGAGCAA [U2G G32A G86U] the nonsense suppression was at most 0.026. With CGCUCGGUAGCCAAGUUGGUUUAAGGCGCAAGACUUUAAUUUAUCACUACGAAAUCUUGAAAUCGGGCGUUCGACUCGCCCCCGGGAGAUUUUUUCCUCGAGCAA [U2G G61A] the nonsense suppression was at most 0.026. Variant CGCUCGGUAGCCAAGUUGGUUUAAGGCGCAAGACUUUAAUUUAUCACUACGAAAUCUUGAGAUCAGCCGUUGGAGUCGCCCCCGGGAGAUUUUUUCCUCGAGCAA [U2G G65A G67C C72G C75G] has a nonsense suppression of at most 0.026. CGCUCGGUAGCCAAGUUGGUUUAAGGCGCAAGACUUUAAUUUAUCACUACGAAAUCUUGAGAUCAGCCGUUUGAGUCGCCCCCGGGAGAUUUUUUCCUCGAGCAA [U2G G65A G67C C72U C75G] gave a nonsense suppression of at most 0.026. Variant CGCUCGGUAGCCAAGUUGGUUUAAGGCGCAAGACUUUAAUUUAUCACUACGAAAUCUUGAGAUCUGGCGUUCGACUAGCCCCCGGGAGAUUUUUUCCUCGAGCAA [U2G G65U C77A] has a nonsense suppression of at most 0.026. With CGCUCGGUAGCCAAGUUGGUUUAAGGCGCAAGACUUUAAUUUAUCACUACGAAAUCUUGAGAUCGCGCGUUCGACUCGCCCCCGGGAGAUUUUUUCCUCGAGCAA [U2G G66C] the nonsense suppression was at most 0.026. For CGCUCGGUAGCCAAGUUGGUUUAAGGCGCAAGACUUUAAUUUAUCACUACGAAAUCUUGAGAUCGGCCGUUCGACUCGCCCCCGGGAAAUUUUUUCCUCGAGCAA [U2G G67C G88A], the nonsense suppression was at most 0.026. In the case of CGCUCGGUAGCCAAGUUGGUUUAAGGCGCAAGACUUUAAUUUAUCACUACGAAAUCUUGAGAUCGGGCAUUCGACUCGCCCCCGGGAGAUUUUUUCCUCGAGCAA [U2G G69A], the nonsense suppression is reported as at most 0.026. Variant CGCUCGGUAGCCAAGUUGGUUUAAGGCGCAAGACUUUAAUUUAUCACUACGAAAUCUUGAGAUCGGGCGUUCCACUCGCCCCCGGGAGAUUUUUUCCUCGAGCAA [U2G G73C] has a nonsense suppression of at most 0.026. CGCUCGGUAGCCAAGUUGGUUUAAGGCGCAAGACUUUAAUUUAUCACUACGAAAUCUUGAGAUCGGGCGUUCGACUCUCCCCCGGGAGAUUUUUUCCUCGAGCAA [U2G G78U] gave a nonsense suppression of 0.0774. CGCUCGGUAGCCAAGUUGGUUUAAGGCGCAAGACUUUAAUUUAUCACUACGAAAUCUUGAGAUCGGGCGUUCGACUCGCCCCCUGGAGAUUUUUUCCUCGAGCAA [U2G G84U] showed a nonsense suppression of at most 0.026. CGCUCGGUAGCCAAGUUGGUUUAAGGCGCAAGACUUUAAUUUAUCACUACGAAAUCUUGAGAUCGGGCGUUCGACUCGCCCCCGGUAGAUUUUUUCCUCGAGCAA [U2G G86U] showed a nonsense suppression of at most 0.026. CGCUCGGUAGCCAAGUUGGUUUAAGGCGCAAGACUUUAAUUUAUCACUACGAAAUCUUGAGAUCGGGCGUUCGACUCGCCCCCGGGAAAUUUUUUCCUCGAGCAA [U2G G88A] showed a nonsense suppression of at most 0.026. Work on CGCACGGUAGCCAAGUUGGUUUAAGGCGCAGGACUUUAAUUUAUCACUACGAAUUCUUGAGAUCGGGCGUUCGACUCGCCCCCGGGAGAUUUUUUCCUCGAGCAA [U2G U4A A31G A54U] yielded a nonsense suppression of at most 0.026. CGCCCGGUGGCCAAGUUGGUUUAAGGCGCAAGAGUUUAAUUUAUCACUACGAAAUCUUGAGAUCGGGCGUUCGACUUGCCCCCGGGAGAUUUUUUCCUCGAGCAA [U2G U4C A9G C34G C77U] gave a nonsense suppression of at most 0.026. With CGCGCGGUAGCCAAGUUGGUUUAAGGUGCAAGACUUUAAUUUAUCACUACGAAAUCUUGAGAUCGGGCGUUCGACGCGCCCCCGGGAGAUUUUUUCCUCGAGCAA [U2G U4G C27U U76G] the nonsense suppression was at most 0.026. CGCGCUGUAGCCAAGUUGGUUUAAGGCGCAAGACUUUAAUUUAUCACUACGAAAUCUUGAGAUCGGGCGUUCGACUCGCCCCCGGGAGAUUUUUUCCUCGAGCAA [U2G U4G G6U] showed a nonsense suppression of at most 0.026. CGCUCGGAAGCCAAGUUGGUUUAAGGCGCAAGACUUUAAUUUAUCACUACGAAAUCUUGAGAUCGGGCGUUCGACUCGCCCCCGGGUGAUUUUUUCCUCGAGCAA [U2G U8A A87U] gave a nonsense suppression of at most 0.026.

Source: the RNAGym collection of RNA variant scans (doi:10.1101/gad.245936.114)
